Source: the supplement of paper PMC3334620
Over roughly 33,000 sequences, “E-score (-0.5 to 0.5)” has its median near -0.017; the highest 2% begin near 0.3. The list shows a part of the results.

These sequences were tested against T1, Sut1 (UniProt P53032) (assay: PBM E-score (8-mer binding enrichment) (E-score (-0.5 to 0.5)); higher = stronger / more preferred TF binding; most listed sequences are background and not binding sites). Settings: protein concentration: 200 nM; construct: GST-full length.
T1 sequence: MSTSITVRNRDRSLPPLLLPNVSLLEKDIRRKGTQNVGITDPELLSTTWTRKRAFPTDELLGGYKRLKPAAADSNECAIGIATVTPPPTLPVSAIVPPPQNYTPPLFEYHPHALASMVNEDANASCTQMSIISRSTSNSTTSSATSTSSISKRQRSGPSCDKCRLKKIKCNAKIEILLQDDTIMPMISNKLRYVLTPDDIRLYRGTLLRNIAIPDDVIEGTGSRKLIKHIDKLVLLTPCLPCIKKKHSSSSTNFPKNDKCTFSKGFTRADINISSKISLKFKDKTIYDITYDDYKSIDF
Summary of the method: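 Masliner-normalised scans of fluorescent anti-GST signal were the basis for scoring. That signal came from GST-tagged yeast transcription factors applied at about 100-200 nM to double-stranded universal all-10-mer Agilent arrays on fresh or once-stripped slides. Each ungapped eight-base word, pooled with its reverse complement, received an E-score from the Universal PBM Analysis Suite.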
ATCCCGAC was tested, and the “PBM E-score” value was 0.116.
AAAAGCAA was tested, and the “PBM E-score” value was 0.242.
In the case of GGTAAGTA, the “PBM E-score” value is reported as 0.00185.
For GCCGTAGA, the “PBM E-score” value was 0.0155.
CCTGACTA was tested, and the “PBM E-score” value was -0.0993.
In the case of TGAAGCAA, the “PBM E-score” value is reported as 0.0425.
With ATAATCTC the “PBM E-score” value was 0.176.
With AGAATTAG the “PBM E-score” value was 0.0738.
With GTTTGTCA the “PBM E-score” value was -0.0164.
For ATGCCTAC, the “PBM E-score” value was -0.175.
ATCGTTAG was tested, and the “PBM E-score” value was 0.123.
With AATCGAGA the “PBM E-score” value was 0.0762.
For CATTTACG, the “PBM E-score” value was 0.0784.
In the case of CCGCGCTC, the “PBM E-score” value is reported as -0.0311.
In the case of AACCTGCT, the “PBM E-score” value is reported as -0.138.
GGTCTTTA was tested, and the “PBM E-score” value was 0.0877.
In the case of ATGCGAAC, the “PBM E-score” value is reported as -0.0189.
For AAAAGCGG, the “PBM E-score” value was 0.126.
For CCGCGAAG, the “PBM E-score” value was 0.0722.
With AATTGTAG the “PBM E-score” value was 0.165.
For CGACGCCA, the “PBM E-score” value was -0.213.
For AGTGTCCA, the “PBM E-score” value was -0.0347.
In the case of AAGACAGG, the “PBM E-score” value is reported as -0.0235.
For ACCTCGAT, the “PBM E-score” value was -0.0769.
With CTTTATGA the “PBM E-score” value was -0.00416.
In the case of GAGAGTCC, the “PBM E-score” value is reported as 0.136.
For ATCACGAA, the “PBM E-score” value was -0.032.
TCACTAAA was tested, and the “PBM E-score” value was 0.108.
For CGACTAAA, the “PBM E-score” value was -0.0254.
In the case of AGCACAGG, the “PBM E-score” value is reported as -0.184.
With AAATAAAG the “PBM E-score” value was 0.224.
For AGATCACG, the “PBM E-score” value was 0.177.
In the case of GACAGTTA, the “PBM E-score” value is reported as 0.179.
For AGAACTGC, the “PBM E-score” value was -0.117.
With TCCGCGAA the “PBM E-score” value was 0.242.
For CAGGTCCG, the “PBM E-score” value was 0.438.
With ACCTAGAC the “PBM E-score” value was 0.0284.
CCGGTCCA was tested, and the “PBM E-score” value was 0.0265.
AGCTTAGG was tested, and the “PBM E-score” value was -0.079.
With CCAGGTGC the “PBM E-score” value was -0.0526.
With AGGTCCCA the “PBM E-score” value was -0.273.
With AGTAGGTC the “PBM E-score” value was -0.0245.
With CGGGGGAA the “PBM E-score” value was 0.0154.
AGTAGGAA was tested, and the “PBM E-score” value was -0.0881.
For CTCACCTA, the “PBM E-score” value was 0.0474.
With CACGTTTA the “PBM E-score” value was -0.0463.
TACTCCTA was tested, and the “PBM E-score” value was -0.00727.
GTGAACCA was tested, and the “PBM E-score” value was 0.00963.
GGTGTGCA was tested, and the “PBM E-score” value was -0.258.
CTAGTTCC was tested, and the “PBM E-score” value was 0.0817.
With CTCCAAAC the “PBM E-score” value was -0.0157.
With GTCATAGA the “PBM E-score” value was -0.0539.
CCGTGAAG was tested, and the “PBM E-score” value was -0.0181.
ACGTACAT was tested, and the “PBM E-score” value was 0.0232.
In the case of ATTGGTGG, the “PBM E-score” value is reported as 0.155.
CATCGGTA was tested, and the “PBM E-score” value was 0.0942.
For CTTAATCC, the “PBM E-score” value was 0.00038.
With GGGGTGAA the “PBM E-score” value was -0.0208.
With GCAGTCCC the “PBM E-score” value was -0.382.
In the case of CTTTCTGC, the “PBM E-score” value is reported as 0.0524.
GTTCTTAA was tested, and the “PBM E-score” value was 0.18.
In the case of GGTGCACC, the “PBM E-score” value is reported as -0.115.
With CAGAATCA the “PBM E-score” value was -0.078.
For AACTATAG, the “PBM E-score” value was 0.0275.
For CTCGACCA, the “PBM E-score” value was -0.0983.
With AGGACCCA the “PBM E-score” value was -0.218.
In the case of GGCTACGA, the “PBM E-score” value is reported as -0.107.
In the case of ACGCAGTC, the “PBM E-score” value is reported as -0.133.
For AATTGGAC, the “PBM E-score” value was 0.181.
CCATGCGC was tested, and the “PBM E-score” value was -0.138.
For AATGTACA, the “PBM E-score” value was 0.23.
For CCTAGTAA, the “PBM E-score” value was 0.0151.
With CATCATCC the “PBM E-score” value was -0.21.
CTTTCAAA was tested, and the “PBM E-score” value was 0.302.
For CCGTCTAC, the “PBM E-score” value was -0.0429.
For ATTGCTCG, the “PBM E-score” value was 0.146.
In the case of CCGAGGCA, the “PBM E-score” value is reported as -0.128.
For CACGCCTC, the “PBM E-score” value was -0.177.
For GCCGAATA, the “PBM E-score” value was 0.165.
GCACTTAA was tested, and the “PBM E-score” value was 0.132.
For AAACGGAT, the “PBM E-score” value was 0.209.
With ACCTGACT the “PBM E-score” value was 0.0196.
For GCAGACTA, the “PBM E-score” value was -0.2.
CCGAAAGC was tested, and the “PBM E-score” value was 0.0236.
TAACGTGA was tested, and the “PBM E-score” value was -0.0781.
With GGGATGGA the “PBM E-score” value was -0.0689.
With CATGTTCG the “PBM E-score” value was -0.0291.
CCGTTTCC was tested, and the “PBM E-score” value was 0.0391.
With CGTCCCTC the “PBM E-score” value was -0.235.
For AAGTGGCT, the “PBM E-score” value was -0.159.
TCAGAGGA was tested, and the “PBM E-score” value was -0.00509.
With CGCTGCAG the “PBM E-score” value was -0.182.
CAAGGCCG was tested, and the “PBM E-score” value was -0.15.
For AAGTAGTC, the “PBM E-score” value was 0.0711.
GATGTTAC was tested, and the “PBM E-score” value was 0.0376.
GGCATAGA was tested, and the “PBM E-score” value was -0.194.
With AGCCACTC the “PBM E-score” value was -0.137.
In the case of CGAAAAAA, the “PBM E-score” value is reported as 0.277.
In the case of ACGCTGCG, the “PBM E-score” value is reported as -0.126.
CTTACCTC was tested, and the “PBM E-score” value was -0.0153.
ATCCCAGC was tested, and the “PBM E-score” value was -0.107.
With AGTCAAGA the “PBM E-score” value was -0.155.
With AAGGTGAA the “PBM E-score” value was -0.0918.
With GTAGAAAC the “PBM E-score” value was 0.068.
In the case of AACCGTAG, the “PBM E-score” value is reported as -0.191.
In the case of AAAATTTT, the “PBM E-score” value is reported as 0.236.
In the case of ATTTGCTA, the “PBM E-score” value is reported as 0.206.
For GGACTTAA, the “PBM E-score” value was 0.326.
For AAAGTTCG, the “PBM E-score” value was 0.069.
CGAACCAA was tested, and the “PBM E-score” value was 0.18.
In the case of CCCGCGAG, the “PBM E-score” value is reported as 0.145.
In the case of AAAATCAC, the “PBM E-score” value is reported as 0.208.
In the case of CAGTTCCA, the “PBM E-score” value is reported as 0.0534.
In the case of CACACTGC, the “PBM E-score” value is reported as -0.0537.
For AGTCCTAT, the “PBM E-score” value was 0.0983.
TCCCAACA was tested, and the “PBM E-score” value was -0.137.
For CGCTCAAG, the “PBM E-score” value was 0.00438.
In the case of CCTCAACA, the “PBM E-score” value is reported as 0.0434.
For ACCCAGTC, the “PBM E-score” value was -0.0505.
CGAAGCAA was tested, and the “PBM E-score” value was -0.00172.
In the case of CTTAAAGC, the “PBM E-score” value is reported as -0.0652.
In the case of CCACTGGA, the “PBM E-score” value is reported as -0.208.
With ATCCTGAG the “PBM E-score” value was -0.115.
With ATGTGCCA the “PBM E-score” value was -0.19.
For AATTACAG, the “PBM E-score” value was 0.231.
With CCTATCCC the “PBM E-score” value was -0.155.
In the case of CCAAAATC, the “PBM E-score” value is reported as 0.0968.
With AGACGCCC the “PBM E-score” value was -0.112.
With GCGCCACA the “PBM E-score” value was -0.143.
For AAATTTTA, the “PBM E-score” value was 0.125.
In the case of AACGTGAT, the “PBM E-score” value is reported as 0.00721.
With CCGATTGA the “PBM E-score” value was 0.0928.
With CCATGGCG the “PBM E-score” value was -0.0784.
For AAAATGCA, the “PBM E-score” value was 0.105.
AACTCAGA was tested, and the “PBM E-score” value was -0.0208.
In the case of CCTTTCCG, the “PBM E-score” value is reported as 0.107.
In the case of CTTCACGC, the “PBM E-score” value is reported as -0.0405.
In the case of ATCCACTA, the “PBM E-score” value is reported as 0.125.
For CTCCCGAA, the “PBM E-score” value was -0.0868.
With CACAGTGC the “PBM E-score” value was -0.0432.
CAACATGA was tested, and the “PBM E-score” value was -0.0165.
In the case of CAGCTAAA, the “PBM E-score” value is reported as -0.0567.
For GGGGAGAC, the “PBM E-score” value was -0.137.
AACGTATT was tested, and the “PBM E-score” value was 0.15.
With AGCAGTAT the “PBM E-score” value was 0.0384.
In the case of GCATATCA, the “PBM E-score” value is reported as 0.0997.
For GCCTTTCC, the “PBM E-score” value was -0.00454.
In the case of GGAAACCC, the “PBM E-score” value is reported as 0.0463.
AAACCAAT was tested, and the “PBM E-score” value was 0.255.
With GCGTTAAA the “PBM E-score” value was 0.156.
CCTTTTAA was tested, and the “PBM E-score” value was 0.0855.
For CTGCGATA, the “PBM E-score” value was -0.188.
With AAGAGCCA the “PBM E-score” value was 0.00997.
For GACACATC, the “PBM E-score” value was -0.102.
With GACACTCC the “PBM E-score” value was 0.314.
For CCAGGAGC, the “PBM E-score” value was -0.273.
In the case of GGGATGTA, the “PBM E-score” value is reported as -0.00772.
With AAGAGACC the “PBM E-score” value was -0.0189.
For ATCCAATG, the “PBM E-score” value was -0.0391.
CTCATGGA was tested, and the “PBM E-score” value was 0.0158.
With GGGGAAAC the “PBM E-score” value was 0.0917.
In the case of ACGACCGA, the “PBM E-score” value is reported as -0.1.
For GTATTGAC, the “PBM E-score” value was -0.13.
TAGAGGCA was tested, and the “PBM E-score” value was -0.263.
For GTTTCTCA, the “PBM E-score” value was 0.0308.
In the case of AACTGGTG, the “PBM E-score” value is reported as -0.161.
For AAGCTGGA, the “PBM E-score” value was -0.137.
In the case of CACCATCA, the “PBM E-score” value is reported as -0.182.
In the case of CAATCGAA, the “PBM E-score” value is reported as 0.147.
CAAGCCCA was tested, and the “PBM E-score” value was -0.299.
GATATAGC was tested, and the “PBM E-score” value was 0.0508.
In the case of TAAAGGGA, the “PBM E-score” value is reported as 0.0848.
